Assay results reported in PubChem BioAssay (NCATS).
The list shows a part of the results. The main result of the screen is listed elsewhere. These columns were measured beside it and carry no call. The list favours compounds with an active or inconclusive main result. Words in brackets tell the shape of the fitted curve; partial curves, single points and poor fits give uncertain potencies.

Test: qHTS Assay for Lipid Storage Modulators (AID 1519)
Settings: Drosophila S3 cells, BODIPY lipid droplet/cell ratio, laser cytometry; measured here: lipid (BODIPY) channel AC50; cells loaded with oleic acid
Summary of the method: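 Cells seeded at 5,000 per well were treated with compounds over a concentration series and loaded with oleic acid (400 uM, as added). Lipid droplet fluorescence (488 nm excitation, 500-530 nm channel) was read by laser-scanning cytometry and normalized to 20 uM Triacsin C.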
Tags give direction and shape of the fitted curve.

| Compound | AC50 |
| --- | --- |
| Cc1cccc(-c2cc(=O)c3cc(C)ccc3o2)c1 | 2.82 µM [rising, full curve] |
| Cc1csc(-c2nc3ccccc3n2C)n1 | 2.51 µM [rising, full curve] |
| COc1ccc(-c2cc(=O)c3ccccc3o2)cc1 | 0.0141 µM [rising, full curve] |
| N#Cc1cccc(-c2ccc3ncnc(NC4CCNCC4)c3c2)c1 | 5.01 µM [rising, partial curve, poor fit] |
| FC(F)(F)c1ccccc1-c1cncnc1NCc1cccnc1 | 0.631 µM [rising, full curve] |
| COc1cccc(-c2nc(NC3CC3)c3ccccc3n2)c1 | 0.0708 µM [rising, full curve] |
| COC1(C2=NCCN2)COc2ccccc2O1 (centres undefined) | 2.82 µM [falling, partial curve, poor fit] |
| CCNc1ncc2nc(-c3ccccc3)c(=O)n(CCc3ccccc3)c2n1 | 0.126 µM [rising, full curve, poor fit] |
| COc1ccc(CNc2nc(-c3cccc(NS(C)(=O)=O)c3)nc3ccccc23)c(OC)c1 | 0.141 µM [rising, full curve] |
| Cc1cccc(CNc2ccnc(-c3ccccc3Cl)n2)c1 | 1.12 µM [rising, full curve, poor fit] |
| COc1ccc(CNc2ncncc2-c2cccc(C#N)c2)c(OC)c1 | 0.891 µM [rising, full curve] |
| COc1ccc(Oc2ncc3nc(-c4cc(F)cc(F)c4)c(=O)n(C4CC4)c3n2)cc1 | 2.51 µM [rising, partial curve] |
| c1cncc(-c2nc(-n3ccnc3)c3ccccc3n2)c1 | 1.78 µM [rising, full curve, poor fit] |
| c1nc(NC2CC2)c2cc(-c3ccoc3)ccc2n1 | 3.55 µM [rising, full curve] |
| CNc1nc(-c2c(C)noc2C)nc2ccccc12 | 0.141 µM [rising, partial curve] |
| N#CCCn1c(=O)c(CCc2ccccc2)nc2cnc(OCc3ccccc3)nc21 | 1.41 µM [rising, partial curve, poor fit] |
| COc1ccc(Oc2ncc3nc(-c4ccc(F)cc4)c(=O)n(C4CC4)c3n2)cc1 | 6.31 µM [rising, single point] |
| C[C@@H](CCc1ccc(O)cc1)NCCc1ccc(O)c(O)c1 | 12.6 µM [rising, partial curve, poor fit] |
| C=CCN1CCc2cc(O)c(O)cc2[C@H](c2ccccc2)C1 | 28.2 µM [rising, partial curve, poor fit] |
| CN(C)c1ncc2nc(-c3ccc(Cl)cc3)c(=O)n(C)c2n1 | 4.47 µM [rising, full curve, poor fit] |

| Compound | AC50 |
| --- | --- |
| COc1ncc2nc(-c3ccccc3)c(=O)n(Cc3cccs3)c2n1 | 3.55 µM [rising, partial curve] |
| O=c1c(-c2ccc(F)cc2)nc2cnc(N3CCOCC3)nc2n1CCc1ccccc1 | 1.58 µM [rising, full curve, poor fit] |
| c1csc(CNc2nc(-c3ccc4c(c3)OCO4)nc3ccccc23)c1 | 0.2 µM [rising, full curve] |
| COc1ncc2nc(-c3ccc(Cl)cc3)c(=O)n(CCC#N)c2n1 | 0.0631 µM [rising, full curve] |
| CN(C)c1ncc2nc(CCc3ccccc3)c(=O)n(Cc3cccs3)c2n1 | 1.26 µM [rising, full curve] |
| CS(=O)(=O)Nc1cccc(-c2cc(NCc3ccccc3)ncn2)c1 | 1.58 µM [rising, full curve, poor fit] |
| Cc1cnc(CNc2cc(-c3ccccc3C(F)(F)F)ncn2)cn1 | 1.26 µM [rising, full curve] |
| COc1ccc2[nH]cc(CCNc3ncncc3-c3ccccc3C(F)(F)F)c2c1 | 2.82 µM [rising, partial curve] |
| CC1c2cccc(O)c2C(O)=C2C(=O)[C@]3(O)C(O)=C(C(N)=O)C(=O)C(N(C)C)C3C(O)C21 (some centres undefined) | 5.62 µM [rising, partial curve] |
| COc1cc(OC)c2c(=O)c(-c3ccccc3)coc2c1 | 3.16 µM [rising, full curve, poor fit] |
| COc1ccccc1CNc1ccnc(-c2cccnc2)n1 | 0.251 µM [rising, full curve, poor fit] |
| c1ccc(Nc2nc(-c3ccc4c(c3)OCO4)nc3ccccc23)cc1 | 0.0251 µM [rising, full curve, poor fit] |
| COc1ncc2ncc(=O)n(Cc3ccc(F)cc3)c2n1 | 0.00562 µM [rising, full curve, poor fit] |
| O=c1cnc2cnc(N3CCOCC3)nc2n1Cc1ccc(F)cc1 | 1.26 µM [rising, full curve] |
| O=S(=O)(c1ccccc1)N1CCC2(CCCN(c3cccc(-c4ccccc4)c3)C2)CC1 | 0.0282 µM [rising, full curve, poor fit] |
| COc1ccccc1-c1nc(NCCc2cnc[nH]2)c2ccccc2n1 | 2.24 µM [rising, full curve, poor fit] |
| COc1ccc2[nH]cc(CCNc3nc(-c4cccnc4)nc4ccccc34)c2c1 | 0.1 µM [rising, full curve, poor fit] |
| C=C1C(=O)C23C(O)C1CCC2[C@]12COC3(O)C(O)C1C(C)(C)CC[C@H]2O (some centres undefined) | 25.1 µM [falling, partial curve] |
| O=S(=O)(c1ccccc1)N1CCC[C@@]2(CCN(c3cccc(-c4ccccc4)c3)C2)C1 | 0.0251 µM [rising, full curve, poor fit] |
